{"source": "patent US7181349", "about": "(dated 2007)", "binders": {"B1": {"name": "Nanogold-bovine-insulin (NG-BI), bovine insulin derivatized at B-chain Phe1 with one mono-NHS-Nanogold cluster (ligand)", "chain 1": "not shown", "chain 2": "not shown", "modifications": "Nanogold cluster (1.4 nm, 70 gold atoms) on Phe1 of the B chain; the filing does not say which of SEQ ID NO:11 and 12 is the B chain", "notes": "The label sits only on the B chain; also called Nanogold-insulin; gold-labeled insulin"}}, "biological_target": "T1, human insulin receptor (HIR), solubilized from human placental membranes and purified (human)", "T1 construct": "also called insulin receptor protein", "assay": "receptor-binding assay with purified human insulin receptor, compared to native bovine insulin (FIG. 1)"}
{"binder": "B1", "values": [{"measurement": "binding result", "result": "binds"}]}
